Data: PubChem BioAssay AID652104 (National Center for Advancing Translational Sciences (NCATS), 2013)
Screen size: about 410,000 compounds; about 7,200 (1.8%) were called active. The inconclusive results got no clear call from the source; some entries with a clear call stand among them for comparison. The call rests on the fitted dose curve; in most records, active means well fitted activation curve with a large enough effect; inconclusive means small, poorly fitted or top-dose-only effect, or another doubt; inactive means no such curve, though single readings can be large or run the other way. No potency is given beside an inconclusive call; the fits are too rough.

Assay: qHTS of TDP-43 Inhibitors; further: nearly all actives have a fitted effect of over 50% in size; on growth rescue (activation): % of control where 0% means no effect
Settings: TDP-43 expressing yeast growth rescue, BacTiter-Glo, 24 h; growth rescue (activation): at 46.1 µM (top of the series) unless noted
Outline: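 Cell-based yeast growth screen: TDP-43 expression induced in galactose, inoculum OD600=0.02 after raffinose pregrowth to mid-log. Read-out BacTiter-Glo luminescence at 24 hr, 30 deg C; inhibition of toxicity seen as signal increase.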
Potency means the concentration at half of the fitted maximal effect; tags describe the fitted curve by direction and shape.

Question: Which Potency does the source give for `COc1ccc(C2=NN3C(C2)c2ccccc2OC32C(=O)N(C)c3ccccc32)cc1` (stereo unspecified) here?
Answer: The Potency was active: 22.4 µM.

Question: With `CCCCC1=CC2=CC(=O)C(C)(OC(=O)CCc3ccccc3)C(=O)C2=CO1` (stereo unspecified) as the molecule, how does the growth rescue (activation) read?
Answer: Its growth rescue (activation) is inconclusive: -65% [activator].

Question: Which Potency does the source give for `O=C(Nc1ccccc1Cc1ccccc1)C1CC(=O)N(c2ccc3c(c2)OCCO3)C1` (stereo unspecified) here?
Answer: Its Potency is inconclusive [activator, partial curve].

Question: Which Potency does the source give for `COc1ccc(C2=CC(=O)C[C@H](c3ccc(Cl)cc3)C2)cn1` here?
Answer: Its Potency is active: 17.8 µM.

Question: For `CC1CCC(NC(=O)c2cc(C3CC3)nn2-c2ccccc2)CC1` (stereo unspecified), which Potency is on record?
Answer: The Potency was inconclusive [activator, single point].

Question: Which Potency does the source give for `CCOC(=O)NC(=O)CSc1nc(-c2ccc(C)c(C)c2)cn1-c1ccccc1` here?
Answer: The Potency was active: 35.5 µM.

Question: For `CCOc1ccccc1NC(=O)COc1coc(CN2CCc3ccccc32)cc1=O`, which Potency is on record?
Answer: The Potency was inconclusive [activator, single point].

Question: With `COc1ccc(CNc2ncnc3c2nnn3C)cc1` as the molecule, how does the Potency read?
Answer: The Potency was inconclusive [activator, partial curve, poor fit].

Question: For `CCCCc1nn2c(=O)cc(COC(=O)c3ccccc3NC(=O)c3ccccc3OC)nc2s1`, which Potency is on record?
Answer: Its Potency is “inactive”.

Question: For `CCCCn1c(=O)c2oc3ccccc3c2n(CC(=O)Nc2cccc(Cl)c2)c1=O`, which Potency is on record?
Answer: Its Potency is “inactive”.

Question: With `CCCC(=O)N1c2nc(C(C)C)nn2C2(CCCCC2)[C@@H]2CCCC[C@@H]21` as the molecule, how does the Potency read?
Answer: Its Potency is “inactive”.

Question: For `COc1cccc(C2=NOC(C(=O)NCc3ccc(F)cc3)C2)c1` (stereo unspecified), which Potency is on record?
Answer: The Potency was inconclusive [activator, single point].

Question: With `O=C1C(c2ccccc2)=[N+]([O-])c2ccccc21` as the molecule, how does the growth rescue (activation) read?
Answer: Its growth rescue (activation) is inconclusive: -90.6% [activator].

Question: For `CC(C)Nc1nc(Cl)nc(Nc2ccccc2)n1`, which Potency is on record?
Answer: The Potency was inconclusive [activator, single point].

Question: With `NOCC(=O)O` as the molecule, how does the Potency read?
Answer: The Potency was inconclusive [activator, full curve, poor fit].

Question: For `O=C(c1cc(-c2cccc(O)c2)on1)N1CCc2ccccc2C1`, which Potency is on record?
Answer: The Potency was inconclusive [activator, single point].

Question: Which Potency does the source give for `O=C(c1c(F)cccc1F)N1CCN(c2ncc(Br)cn2)CC1` here?
Answer: The Potency was inconclusive [activator, single point].

Question: For `Cc1cccc(N(C)c2ncnc3onc(-c4ccc(F)cc4)c23)c1C`, which Potency is on record?
Answer: The Potency was inconclusive [activator, single point].

Question: Which Potency does the source give for `Cc1ccccc1OCC(=O)N/N=C/c1ccc(N2CCOCC2)o1` here?
Answer: Its Potency is inconclusive [activator, single point].

Question: With `COc1ccccc1NC(=O)Cc1cccc2ccccc12` as the molecule, how does the Potency read?
Answer: Its Potency is inconclusive [activator, single point].

Question: For `Clc1ccc(OCCSc2ncccn2)c2ccccc12`, which Potency is on record?
Answer: The Potency was inconclusive [activator, partial curve].

Question: With `CC1(C(=O)Nc2ccccc2Br)CCN1C(=O)CC1CC1` (stereo unspecified) as the molecule, how does the Potency read?
Answer: The Potency was inconclusive [activator, partial curve, poor fit].

Question: For `O=C(CSc1nc2c([nH]c3ccccc32)c(=O)n1-c1ccccc1)N1CCCC1`, which Potency is on record?
Answer: Its Potency is “inactive”.

Question: With `CCOC(=O)NCc1ccc(Cl)c(Cl)c1` as the molecule, how does the Potency read?
Answer: The Potency was active: 17.8 µM.

Question: Which Potency does the source give for `Cn1nc(C(=O)N2CCN(c3ccccc3)CC2)c2c1-c1ccccc1S(=O)(=O)C2` here?
Answer: Its Potency is inconclusive [activator, full curve].

Question: Which Potency does the source give for `CCOC(=O)N1CCN(C(=O)c2ccc(Cn3c(=S)[nH]c4cc5c(cc4c3=O)OCO5)cc2)CC1` here?
Answer: Its Potency is “inactive”.

Question: Which Potency does the source give for `Cc1sc2nc(C3CC3)nc(SCC(=O)N3CCc4ccccc4C3)c2c1C` here?
Answer: The Potency was inconclusive [activator, partial curve, poor fit].

Question: For `COc1ccc(S(=O)(=O)c2c(SC)nn(Cc3ccccc3C)c2NC(C)=O)cc1`, which Potency is on record?
Answer: Its Potency is “inactive”.

Question: With `CSCCC(NC(=O)c1ccc(Cl)cc1Cl)C(=O)N1CCN(C(=O)c2ccccc2)CC1` (stereo unspecified) as the molecule, how does the Potency read?
Answer: Its Potency is inconclusive [activator, full curve, poor fit].

Question: With `Cc1ccc(/C(N)=N/OC(=O)Cc2ccccc2)cc1` as the molecule, how does the Potency read?
Answer: Its Potency is “inactive”.

Question: Which Potency does the source give for `COc1ccc(CCNC(=O)C2CC3Cn4c(nc5cc(Cl)c(Cl)cc54)C3N2C)cc1` (stereo unspecified) here?
Answer: The Potency was inconclusive [activator, partial curve].

Question: Which Potency does the source give for `COc1cn(-c2ccccc2)nc1C(=O)NCc1ccc(C)cc1` here?
Answer: Its Potency is inconclusive [activator, single point].

Question: Which growth rescue (activation) does the source give for `On1ccccc1=S` here?
Answer: Its growth rescue (activation) is inconclusive: -89% [activator].

Question: For `CC(C)(C)c1ccc(C(=O)n2cnc3ccccc32)cc1`, which Potency is on record?
Answer: The Potency was inconclusive [activator, partial curve].

Question: Which Potency does the source give for `COC(=O)c1ccsc1NC(=O)CCc1ccccc1` here?
Answer: Its Potency is inconclusive [activator, full curve, poor fit].

Question: For `COC(=O)CN(c1c(C)cccc1C)S(C)(=O)=O`, which Potency is on record?
Answer: Its Potency is “inactive”.

Question: For `CCOC(=O)Cc1c(C)nc2c(-c3ccccc3)cnn2c1C`, which Potency is on record?
Answer: The Potency was inconclusive [activator, partial curve].

Question: With `COC(=O)C[C@H]1c2cc(C(F)(F)F)ccc2S(=O)(=O)N1Cc1ccccc1OC` as the molecule, how does the Potency read?
Answer: The Potency was inconclusive [activator, partial curve].

Question: For `Cc1nn(-c2ccc(F)cc2)c(Cl)c1C(=O)OC(C)C(=O)N(C)C1CCCCC1` (stereo unspecified), which Potency is on record?
Answer: Its Potency is inconclusive [activator, partial curve].

Question: With `COc1ccc(OC)c(C(=O)C(=O)c2cc(OC)ccc2OC)c1` as the molecule, how does the Potency read?
Answer: Its Potency is inconclusive [activator, partial curve, poor fit].

Question: For `Cc1cc(Br)ccc1NC(=O)C1(S(=O)(=O)c2ccc(Cl)cc2)CC1`, which Potency is on record?
Answer: The Potency was inconclusive [activator, partial curve, poor fit].

Question: Which Potency does the source give for `CCCCCC(=O)N1CCN(c2ccc(C(C)=O)cc2F)CC1` here?
Answer: Its Potency is inconclusive [activator, partial curve, poor fit].

Question: For `O=C1Cc2ccccc2C(=O)N1CCc1ccccc1`, which Potency is on record?
Answer: Its Potency is active: 12.6 µM.

Question: With `COc1ccc(-c2nc3ccccc3n2Cc2ccc(Cl)cc2)cc1` as the molecule, how does the Potency read?
Answer: Its Potency is active: 22.4 µM.

Question: With `Nc1cccc(Oc2ccc([N+](=O)[O-])cc2)c1` as the molecule, how does the Potency read?
Answer: The Potency was inconclusive [activator, partial curve].

Question: For `Cc1ccc(C(=O)c2oc3ccccc3c2NC(=O)Cc2coc3c(C)c(C)ccc23)cc1`, which Potency is on record?
Answer: The Potency was “inactive”.

Question: Which Potency does the source give for `COc1cc(C)ccc1OCCSc1nnc(-c2ccc(C)cc2)o1` here?
Answer: The Potency was inconclusive [activator, partial curve].

Question: With `c1ccc(-c2nc3ccccn3c2-c2ccccc2)cc1` as the molecule, how does the Potency read?
Answer: Its Potency is inconclusive [activator, partial curve].

Question: Which Potency does the source give for `Fc1ccc(-n2cc(-c3ccccc3)c3c(N4CCOCC4)ncnc32)cc1` here?
Answer: Its Potency is inconclusive [activator, single point].

Question: With `Cc1ccccc1-c1ccc(C(=O)NCc2ccccc2)o1` as the molecule, how does the Potency read?
Answer: The Potency was inconclusive [activator, single point].

Question: Which Potency does the source give for `CCOc1ccc(OCC(=O)Nc2ccc(N3CCCCC3)cc2)cc1` here?
Answer: Its Potency is inconclusive [activator, partial curve, poor fit].

Question: For `CCOC(=O)C1=C(C)Nc2nc(=S)[nH]n2C1c1ccc(Cl)cc1` (stereo unspecified), which Potency is on record?
Answer: The Potency was active: 22.4 µM.

Question: For `COc1cc(OC)cc(C2=Cc3ccccc3C(CC(=O)c3ccco3)N2c2ccc(-c3cccnc3)cc2)c1` (stereo unspecified), which Potency is on record?
Answer: Its Potency is inconclusive [activator, partial curve].

Question: With `CNC(=O)C(NC(=O)Nc1ccc(C)cc1)C(C)(C)C` (stereo unspecified) as the molecule, how does the Potency read?
Answer: Its Potency is “inactive”.

Question: Which Potency does the source give for `CCOC(=O)c1ccc(NC(=O)COC(=O)Cc2csc(-c3ccccc3)n2)cc1` here?
Answer: Its Potency is inconclusive [activator, partial curve].

Question: Which Potency does the source give for `COc1ccc(-c2noc(CN3CCN(c4ccccc4OC)CC3)n2)cc1OC` here?
Answer: Its Potency is inconclusive [activator, partial curve].

Question: With `Nc1ccc(Sc2ccc([N+](=O)[O-])cc2)cc1` as the molecule, how does the Potency read?
Answer: The Potency was inconclusive [activator, single point].

Question: Which Potency does the source give for `O=C(/C=C/c1ccc2ccccc2n1)c1cc(Br)ccc1O` here?
Answer: Its Potency is inconclusive [activator, single point].

Question: Which Potency does the source give for `COc1ccc(C)c2sc(N(Cc3cccnc3)C(=O)CCc3ccccc3)nc12` here?
Answer: Its Potency is “inactive”.

Question: Which Potency does the source give for `CCCCN(CC)C(=O)Nc1ccc2c(c1)N(C)C(=O)c1ccccc1S2` here?
Answer: The Potency was “inactive”.

Question: With `COc1ccccc1NC(=S)NC(=O)C1CC1` as the molecule, how does the Potency read?
Answer: The Potency was inconclusive [activator, partial curve].

Question: Which Potency does the source give for `O=C(NCCCN1CCOCC1)c1cc(S(=O)(=O)N2CCCCC2)ccc1Cl` here?
Answer: Its Potency is inconclusive [activator, partial curve, poor fit].

Question: For `Clc1ncccc1-c1nnn(-c2ccccc2)n1`, which Potency is on record?
Answer: The Potency was inconclusive [activator, partial curve].

Question: For `[N-]=[N+]=CC(=O)C(Cc1ccccc1)N1C(=O)c2ccccc2C1=O` (stereo unspecified), which Potency is on record?
Answer: Its Potency is inconclusive [activator, partial curve].

Question: For `CN(C)Cc1c(C(=O)N/N=C/c2ccncc2)nnn1-c1nonc1N`, which Potency is on record?
Answer: Its Potency is inconclusive [activator, single point].

Question: For `NNC(=O)c1ccc(COc2ccc3ccccc3c2)cc1`, which Potency is on record?
Answer: The Potency was active: 15.8 µM.

Question: With `Cc1noc2nc(C(=O)O)nc(N3CCCCC3)c12` as the molecule, how does the Potency read?
Answer: Its Potency is inconclusive [activator, partial curve].

Question: For `COc1cccc(C(=O)Nc2cccc3ccccc23)c1`, which Potency is on record?
Answer: The Potency was inconclusive [activator, full curve].

Question: With `COc1cccc(N2CC(NC(=O)COc3ccc4ccccc4c3)CC2=O)c1` (stereo unspecified) as the molecule, how does the Potency read?
Answer: Its Potency is active: 14.1 µM.

Question: For `COc1ccc(/C=C2\SC(N3CCCCC3)=NC2=O)cc1OC`, which Potency is on record?
Answer: The Potency was “inactive”.

Question: For `O=C(N/N=C/c1cccc(Oc2ccccc2)c1)c1cccc(O)c1`, which Potency is on record?
Answer: Its Potency is inconclusive [activator, single point].
